± gives the standard error. Variants at the background level are over-represented here.
B1: glmS ribozyme (parent)
chain: AUAAAAGCGCCAGAACUACAGAAAUGUAGUUGACGAGGAGGAGGUUUAUCGAAUUUUCGGCGGAUGCCUCCAAA

Experiments:
Conditions in all cases: with glucosamine-6-phosphate
glucosamine-6-phosphate [1] = variants of: B1; test: self-cleavage kobs at 640 uM GlcN6P; higher = faster cleavage; RNA array
How it was run: (§1)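 Glucosamine-6-phosphate (40 μM to 10 mM) in HEPES/KCl/Mg(OAc)2 buffer was flowed over sequenced MiSeq chips, and tiles were imaged over ~14 h. Barcoded ribozyme variants there had been transcribed in situ by E. coli RNA polymerase and were tracked through a hybridised Cy3 probe at 37 °C. One- or two-exponential decay fits to per-tile medians, normalised to baseline and to non-cleaving reference variants, gave kobs. kcat and KM came from weighted Michaelis–Menten fits across concentrations.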

glucosamine-6-phosphate [2] = variants of: B1; test: self-cleavage kobs at 2500 uM GlcN6P; higher = faster cleavage; RNA array
How it was run: as §1

glucosamine-6-phosphate [3] = variants of: B1; test: self-cleavage kobs at 160 uM GlcN6P; higher = faster cleavage; RNA array
How it was run: as §1

glucosamine-6-phosphate [4] = variants of: B1; test: self-cleavage kobs at 10000 uM GlcN6P; higher = faster cleavage; RNA array
How it was run: as §1

Variant	self-cleavage kobs at 640 uM GlcN6P (glucosamine-6-phosphate [1]) [s⁻¹]	self-cleavage kobs at 2500 uM GlcN6P (glucosamine-6-phosphate [2]) [s⁻¹]	self-cleavage kobs at 160 uM GlcN6P (glucosamine-6-phosphate [3]) [s⁻¹]	self-cleavage kobs at 10000 uM GlcN6P (glucosamine-6-phosphate [4]) [s⁻¹]
C10G G29U U31C G32C C34G C71A	< 1e-05			
C10G G37U G63A	< 1e-05	< 1e-05		
C10G G40C C71G	< 1e-05	< 1e-05		
C10G G40U C70U	< 1e-05	< 1e-05		
C10G G41C G63U	< 1e-05		< 1e-05	
C10G G41C U56G C67A	< 1e-05	< 1e-05		
C10G G43U U45C G66C	< 1e-05	< 1e-05		
C10G U31C A33C G51U C71U	< 1e-05		< 1e-05	
C10G U31G	< 1e-05	< 1e-05	< 1e-05	
C10G U45A U49C	< 1e-05		< 1e-05	
C10G U45A U54G G59C	< 1e-05	< 1e-05		
C10G U46A	< 1e-05	< 1e-05		
C10G U49C G66C	< 1e-05	< 1e-05		
C10G U57A	< 1e-05			< 1e-05
C10U A12C G60U	< 1e-05			
C10U A12G A42G	< 1e-05		< 1e-05	
C10U A14G C16U A33C A48C G62C	< 1e-05			
C10U A15C A48U U57A	< 1e-05	< 1e-05		
C10U A15C G32A G38U G40U C67A	< 1e-05			
C10U A15C G43U G63U	< 1e-05	< 1e-05		
C10U A23C A48C A53C	< 1e-05		< 1e-05	
C10U A33U G43U A53C U57G	< 1e-05	< 1e-05		
C10U A33U G62U C71A	< 1e-05	< 1e-05	< 1e-05	< 1e-05
C10U A36U G41A	< 1e-05	< 1e-05		

Variant	self-cleavage kobs at 640 uM GlcN6P (glucosamine-6-phosphate [1]) [s⁻¹]	self-cleavage kobs at 2500 uM GlcN6P (glucosamine-6-phosphate [2]) [s⁻¹]	self-cleavage kobs at 160 uM GlcN6P (glucosamine-6-phosphate [3]) [s⁻¹]	self-cleavage kobs at 10000 uM GlcN6P (glucosamine-6-phosphate [4]) [s⁻¹]
C10U A39U U57A	< 1e-05	< 1e-05	< 1e-05	
C10U A42C C67U	< 1e-05			
C10U A48G G66A	< 1e-05			
C10U C11U G60U G63A	< 1e-05			
C10U C68G C70U	0.00013 ± 2.8e-05	5.98e-05 ± 1.4e-05	3.3e-05 ± 1.5e-05	
C10U G13A U56A G59U	< 1e-05	< 1e-05		
C10U G32U C68U	< 1e-05			
C10U G38A C50U	< 1e-05			
C10U G38C U54C U65C U69A	< 1e-05		< 1e-05	
C10U G38U G59U	< 1e-05			
C10U G60U C70G	< 1e-05		< 1e-05	
C10U U30C U55C	< 1e-05			
C10U U31A G63C	< 1e-05	< 1e-05	< 1e-05	
C10U U31C G38U G40C G44A C68G	< 1e-05	< 1e-05	< 1e-05	< 1e-05
C10U U55C G59A	< 1e-05	< 1e-05		
C10U U56G G63U	< 1e-05			
C11A A12U A36C A48C G60U G62A	< 1e-05	< 1e-05		
C11A A14C G35A C50G C71G	0.000433 ± 0.00014	0.000131 ± 4.3e-05	0.000211 ± 3.9e-05	
C11A A14C U55C U69G	< 1e-05			
C11A A14G U65G	5.21e-05 ± 1.7e-05	9.32e-05 ± 2e-05		0.000135 ± 1.7e-05
C11A A15G	8.86e-05 ± 1e-05	0.000149 ± 1.9e-05	3.04e-05 ± 1.5e-05	0.000251 ± 3.3e-05
C11A A15U A36G C70U	< 1e-05			
C11A A33G G63A G66U	< 1e-05			
C11A A33U A64C	< 1e-05	< 1e-05		

Variant	self-cleavage kobs at 640 uM GlcN6P (glucosamine-6-phosphate [1]) [s⁻¹]	self-cleavage kobs at 2500 uM GlcN6P (glucosamine-6-phosphate [2]) [s⁻¹]	self-cleavage kobs at 160 uM GlcN6P (glucosamine-6-phosphate [3]) [s⁻¹]	self-cleavage kobs at 10000 uM GlcN6P (glucosamine-6-phosphate [4]) [s⁻¹]
C11A A33U G66A	< 1e-05	< 1e-05	< 1e-05	
C11A A36C A39C U45G G63U	< 1e-05	< 1e-05	< 1e-05	
C11A A36U U56A C68G C70A	0.000823 ± 0.0003		6.51e-05 ± 2.8e-05	4.16e-05 ± 1.8e-05
C11A A39G C61U C70G	< 1e-05	< 1e-05	< 1e-05	
C11A A48U C70A	9.74e-05 ± 2.9e-05			
C11A A52U C61G	< 1e-05			
C11A C16A A39U C50A	< 1e-05		< 1e-05	
C11A G13A G38U U46G U55C G62C A64C	< 1e-05			
C11A G13C C16G G40U	< 1e-05			
C11A G29U G35U	< 1e-05		< 1e-05	
C11A G32C A33U	< 1e-05			
C11A G32U G60A	< 1e-05	< 1e-05		
C11A G35C U47C U57G U65G	< 1e-05			
C11A G38U A39U G60A	< 1e-05	< 1e-05		
C11A G40U U56C A64C C67G	< 1e-05			
C11A G41A G51U	< 1e-05			
C11A G44U G59A C70A	< 1e-05		< 1e-05	
C11A G62U U65G	< 1e-05			
C11A G63A	< 1e-05			
C11A U31G C50A A53G	< 1e-05			< 1e-05
C11A U45A G63A	< 1e-05	< 1e-05	< 1e-05	< 1e-05
C11A U46C	< 1e-05			
C11A U56A C70U C71A	0.000256 ± 7.9e-05			
C11G A12C A42C G60C C71U	< 1e-05	< 1e-05		

Variant	self-cleavage kobs at 640 uM GlcN6P (glucosamine-6-phosphate [1]) [s⁻¹]	self-cleavage kobs at 2500 uM GlcN6P (glucosamine-6-phosphate [2]) [s⁻¹]	self-cleavage kobs at 160 uM GlcN6P (glucosamine-6-phosphate [3]) [s⁻¹]	self-cleavage kobs at 10000 uM GlcN6P (glucosamine-6-phosphate [4]) [s⁻¹]
C11G A14G G63U	< 1e-05		< 1e-05	
C11G A14U G37U G40U	< 1e-05	< 1e-05		
C11G A33G A52C	< 1e-05		< 1e-05	
C11G A42C	< 1e-05	< 1e-05	< 1e-05	
C11G A42U G63U	< 1e-05			
C11G A42U U45C G66U C70G	< 1e-05	< 1e-05		
C11G A48U C58A A64C	< 1e-05	< 1e-05		
C11G A52C U57C G62C	< 1e-05			
C11G C16A G43U C61G	< 1e-05	< 1e-05		
C11G C16U G35C U65A	< 1e-05			
C11G C16U G37A U55C	< 1e-05		< 1e-05	
C11G C34A G43U	< 1e-05	< 1e-05		< 1e-05
C11G C50U U57A G60A C67U	0.000609 ± 0.00017			
C11G G13U C50G G60U C61G	5.02e-05 ± 2.4e-05			
C11G G29U C34G	< 1e-05	< 1e-05		
C11G G32A U65G	< 1e-05		< 1e-05	< 1e-05
C11G G32U G37C G38U	< 1e-05	< 1e-05		< 1e-05
C11G G35A C58G	< 1e-05	< 1e-05	< 1e-05	
C11G G35C G37U G43U U46G	< 1e-05		< 1e-05	
C11G G35U U57A C70U	< 1e-05	< 1e-05	< 1e-05	
C11G G40C	< 1e-05	< 1e-05	< 1e-05	< 1e-05
C11G G40C C58U C67U	< 1e-05	< 1e-05		
C11G G41U C50U	< 1e-05	< 1e-05		
C11G U30G A42U A53U G63U U65A C68G	< 1e-05			

Variant	self-cleavage kobs at 640 uM GlcN6P (glucosamine-6-phosphate [1]) [s⁻¹]	self-cleavage kobs at 2500 uM GlcN6P (glucosamine-6-phosphate [2]) [s⁻¹]	self-cleavage kobs at 160 uM GlcN6P (glucosamine-6-phosphate [3]) [s⁻¹]	self-cleavage kobs at 10000 uM GlcN6P (glucosamine-6-phosphate [4]) [s⁻¹]
C11G U31G G44A U65C	< 1e-05		< 1e-05	
C11G U31G U56A	< 1e-05			
C11G U47C	< 1e-05		< 1e-05	< 1e-05
C11G U47G C50A C70G	0.000245 ± 6.2e-05	0.000139 ± 4e-05		7.52e-05 ± 1.9e-05
C11G U49C	< 1e-05			
C11G U55G C71U	< 1e-05			
C11U A12U U30C U57C G63A	< 1e-05	< 1e-05		
C11U A14G A52G	8.93e-05 ± 1.6e-05	0.00029 ± 8e-05		
C11U A14U A39G G44A G51C	< 1e-05			
C11U A15C A39C U49C	< 1e-05			
C11U A33U A39C	< 1e-05		< 1e-05	
C11U A33U C34G	< 1e-05	< 1e-05		< 1e-05
C11U A64C C68G C70U	< 1e-05	< 1e-05		
C11U C16A	4.38e-05 ± 1.9e-05	0.000106 ± 2.2e-05		0.000145 ± 2.9e-05
C11U C16G	0.000104 ± 1.9e-05			
C11U C68A C71G	0.000101 ± 2.3e-05			
C11U G13C U57C	< 1e-05	< 1e-05	< 1e-05	
C11U G26A G35A G60C	< 1e-05			
C11U G29C G43U G44U	< 1e-05	< 1e-05		< 1e-05
C11U G29U	7.49e-05 ± 1.3e-05	0.000407 ± 6.3e-05	5.37e-05 ± 1.3e-05	0.000463 ± 6.1e-05
C11U G40A	8.42e-05 ± 2.2e-05			
C11U G40C U47C	< 1e-05			
C11U G63U U65A	< 1e-05			
C11U U30A A33U G63C C70G	< 1e-05			

Reference: the supplement of paper PMC7125110
